Data published in article PMC4336329 (PLoS ONE, 2015).
Hit rate of the full screen: of about 310,000 compounds, about 14,000 (4.5%) showed an effect of 50% or more. The effect is printed as a negative number. Some of the results follow.

Target: human ether-à-go-go-related gene (hERG) potassium channel (human, UniProt Q12809)
Experiment: primary screen, population patch clamp on CHO cells stably expressing hERG
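Note: peak tail current of the secondary pulse compared with the same well before compound.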

Chain of human ether-à-go-go-related gene (hERG) potassium channel (Q12809 whole entry, looked up): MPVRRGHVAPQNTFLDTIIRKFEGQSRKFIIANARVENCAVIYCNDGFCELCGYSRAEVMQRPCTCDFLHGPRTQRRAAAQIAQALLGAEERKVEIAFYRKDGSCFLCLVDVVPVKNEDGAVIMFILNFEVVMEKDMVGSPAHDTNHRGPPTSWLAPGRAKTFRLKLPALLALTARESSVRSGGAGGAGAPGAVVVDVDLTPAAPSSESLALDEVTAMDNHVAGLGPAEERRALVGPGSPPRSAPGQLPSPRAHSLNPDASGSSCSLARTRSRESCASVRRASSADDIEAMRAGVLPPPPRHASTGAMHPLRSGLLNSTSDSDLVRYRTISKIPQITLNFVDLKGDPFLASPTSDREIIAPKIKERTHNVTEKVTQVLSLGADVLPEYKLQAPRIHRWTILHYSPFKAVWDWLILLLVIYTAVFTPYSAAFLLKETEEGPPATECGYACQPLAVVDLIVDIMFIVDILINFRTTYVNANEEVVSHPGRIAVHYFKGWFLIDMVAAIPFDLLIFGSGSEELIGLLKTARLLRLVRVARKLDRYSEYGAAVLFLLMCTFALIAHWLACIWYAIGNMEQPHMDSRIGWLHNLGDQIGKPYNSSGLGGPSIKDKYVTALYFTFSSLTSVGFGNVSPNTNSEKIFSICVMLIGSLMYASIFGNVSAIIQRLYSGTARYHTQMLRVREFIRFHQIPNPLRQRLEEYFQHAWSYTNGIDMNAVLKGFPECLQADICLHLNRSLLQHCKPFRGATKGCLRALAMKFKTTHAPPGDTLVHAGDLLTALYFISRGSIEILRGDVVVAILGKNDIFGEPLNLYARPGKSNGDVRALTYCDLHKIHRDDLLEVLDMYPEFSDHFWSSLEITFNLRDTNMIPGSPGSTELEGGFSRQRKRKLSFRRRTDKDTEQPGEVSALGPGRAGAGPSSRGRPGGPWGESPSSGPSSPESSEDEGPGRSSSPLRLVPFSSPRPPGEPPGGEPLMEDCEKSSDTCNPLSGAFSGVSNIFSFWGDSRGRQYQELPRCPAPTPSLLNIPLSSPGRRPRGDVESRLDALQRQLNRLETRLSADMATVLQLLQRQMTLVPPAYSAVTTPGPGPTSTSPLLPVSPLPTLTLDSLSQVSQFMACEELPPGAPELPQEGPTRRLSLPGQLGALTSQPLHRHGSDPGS

| SMILES | hERG current change (%, negative = inhibition) at 10uM [%] |
| --- | --- |
| Cc1cc(C#N)c(C)n1-c1cc(S(=O)(=O)N2CCOCC2)ccc1N1CCCC1 | -14.3 |
| CC(=O)Nc1ccc(/C=N/NC(=O)CNS(=O)(=O)c2ccccc2)cc1 | 5.91 |
| COc1ccc(Nc2oc(-c3ccc(F)cc3)nc2C#N)cc1 | 1.73 |
| O=C(/C=C/NNC(=O)c1ccccc1O)c1ccccc1 | -23.5 |
| COCCSc1ccccc1C(=O)NCc1ccc(S(N)(=O)=O)cc1 | -40.9 |
| CCc1cc(=O)oc2cc(C)cc(OCc3nn[nH]n3)c12 | -5.99 |
| C=Cc1ccc(C(=O)NC2CCCN(Cc3ccccc3F)C2)cc1 (stereo not drawn) | -28.8 |
| CCc1cc2c(=O)n(Cc3ccco3)c(SCc3c(C)noc3C)nc2s1 | -5.47 |
| O=C(N/C(=C\c1ccc(Cl)cc1)C(=O)N1CCOCC1)c1ccco1 | -31.4 |
| O=C(CCN1C(=O)COc2ccccc21)NCCCN1CCN(c2ccccc2F)CC1 | -42.7 |
| CC(=O)Nc1ccc2ccc3cccc4ccc1c2c34 | -2.51 |
| Cc1ccccc1Cn1ccc(NC(=O)c2cc3nc(-c4ccco4)cc(C(F)(F)F)n3n2)n1 | 14.7 |
| CCOC(=O)C1(CCOc2ccccc2)CCN(Cc2cccc(OCCO)c2)CC1 | -83.4 |
| CCn1cc([N+](=O)[O-])c(C(=O)N2N=C(c3ccccc3)CC2c2ccc([N+](=O)[O-])cc2)n1 (stereo not drawn) | -37.2 |
| Cc1cccc(-n2nnc(C(=O)NCc3ccco3)c2N)c1 | -10.2 |
| CCOc1ccc(Cl)cc1CNCCCSc1nc(C)cc(C)n1.Cl | -59.6 |
| O=C(Nc1ccc2c(c1)OCO2)c1cnn2cccnc12 | 8.03 |
| O=[N+]([O-])c1ccc(N2CCCC2)nc1 | -0.605 |
| COc1cc(Cl)c(C)cc1NC(=O)CN1CCN(C(=O)C2CC2)CC1 | -59.6 |
| COc1ccc(CN2CSC(=S)N(Cc3ccccc3)C2)cc1 | -8.05 |
| C/C(=C\C(=O)c1ccc(Br)cc1)NCc1ccccc1 | -3.83 |
| COCc1cccc(C2=CC(=O)C[C@H](c3ccc(OC)cc3)C2)c1 | -20.7 |
| COc1ccc(NC(C)=O)cc1S(=O)(=O)Nc1ccccc1C(=O)NCCc1ccccc1 | 8.95 |

| SMILES | hERG current change (%, negative = inhibition) at 10uM [%] |
| --- | --- |
| C=CCN(c1ccccc1Cl)S(=O)(=O)c1cc(C(=O)N2CCCC2)ccc1Cl | -46.4 |
| O=C(O)c1ccc(NC(=O)c2ccccc2NC(=O)c2cccc(F)c2)cc1 | 20.2 |
| CCc1ccc(C2C(=O)c3ccccc3C2=O)cc1 | -3.18 |
| CCOC(=O)CSCC(NC(=O)OC(C)(C)C)C(=O)OCC (stereo not drawn) | 4.53 |
| O=C(CCc1nc(-c2ccccc2)no1)NC1CCCCC1 | -2.68 |
| COc1ccc(CN2CCCC(C(=O)c3ccc(Cl)cc3)C2)cc1Cn1cncn1 (stereo not drawn) | -78 |
| Cc1ccc(S(=O)(=O)NCCCC(=O)C=[N+]=[N-])cc1 | 3.51 |
| CC1CCc2sc(NC(=S)NC(=O)c3ccccc3)c(C#N)c2C1 (stereo not drawn) | 6.48 |
| Cn1c(=O)n(C)c2cc(NS(=O)(=O)c3ccc(C(C)(C)C)cc3)ccc21 | -6.6 |
| CCOC(=O)c1ccn(CSc2c(F)c(F)cc(F)c2F)n1 | -3.79 |
| Nc1ccccc1OCCOc1ccccc1N | 6.9 |
| COC(=O)Cc1c(C)c2ccc(OCC(=O)N3CCC(C)CC3)c(C)c2oc1=O | -31.8 |
| CCCc1ncc(C(O)(c2ccccc2)c2ccc(C)cc2)n1C (stereo not drawn) | -8.7 |
| NC(=O)C1CCN(C(=O)CN(c2cccc(Cl)c2)S(=O)(=O)c2ccccc2)CC1 | 4.96 |
| CCN(CC)C(=O)c1cc2c(=O)n3cccc(C)c3nc2s1 | 15.5 |
| CCOC(=O)Cn1cc([N+](=O)[O-])c(OC)n1 | 26.2 |
| CCCNC(=O)c1onc(CSc2ccc(F)cc2)c1C(=O)NCC1CC1 | -62.7 |
| O=C(c1ccc(N2CCCCC2)c([N+](=O)[O-])c1)N1CCN(S(=O)(=O)c2ccccc2)CC1 | -49.9 |
| CN(CC(=O)Nc1ccccc1Cl)C(=O)COC(=O)c1ccccc1[N+](=O)[O-] | -6.07 |
| CCN(CC)CCn1c(=S)[nH]c2ccccc2c1=O | -25.6 |
| Cc1nc2cc(-c3ccccc3)ccc2o1 | -8.71 |
| C=CCNC(=O)c1ccccc1NC(=O)c1cccc2ccccc12 | -23.7 |
